In patent US20020102658A1:

Biological target: human AILIM (activation inducible lymphocyte immunomodulatory molecule) (human) (UniProt Q9Y6W8)
Test: cell ELISA on recombinant CHO cells overexpressing human AILIM; given as ED50

Chain of UniProt Q9Y6W8 (Q9Y6W8 21-199): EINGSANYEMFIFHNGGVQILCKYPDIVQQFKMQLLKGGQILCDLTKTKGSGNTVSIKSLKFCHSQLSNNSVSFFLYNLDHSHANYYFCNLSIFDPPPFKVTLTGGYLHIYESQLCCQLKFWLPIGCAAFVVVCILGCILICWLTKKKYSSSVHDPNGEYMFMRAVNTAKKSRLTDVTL

EC50: 7.5 ng/mL
B1: human anti-human AILIM monoclonal antibody JMab-136 (clone AIH5D3) (antibody, from another filing, human IgG2, V domains shown)
VH: [in this place about 100 residues]TYYYDSSGYYHDAFDIWGQGTMVTVSS
VL: DIQMTQSPSSVSASVGDRVTITCRASQGISRLLAWYQQKPGKAPKLLIYVASSLQSGVPSRFSGSGSGTDFTLTISSLQPEDFATYYCQQANSFPWTFGQGTKVEIKR
